The campaign covered roughly 150,000 compounds. About 540 (0.36%) showed an effect of 50% or more. Some of the results follow.

The assay deals with Plasmodium falciparum. Description: Primary screen in NF54 nanoGlo assay, in single point, at 2uM, 72h; a lower Z score goes with more inhibition. In kind it is functional, Erythrocyte. To be noted: timepoint 72 hour.
`CN1C[C@H](NC(=O)C(=O)NC2CCCC2)C[C@H]1CO`: the “% Inhibition” value is on record as -9% and the Z score is recorded as 1.61.
Regarding `Cc1cc(OCc2ccn(C3CCCC3)n2)ccc1C#N`, the “% Inhibition” value was -8% and the Z score is given as 1.51.
Regarding `Cn1ccc(C(=O)N2Cc3ccccc3-c3ccccc32)cc1=O`, the “% Inhibition” value is -9% and the Z score was found to be 1.39.
On to `C=CCNC(=O)NCc1ccc(C)nc1OC`, for which the “% Inhibition” value was -17% and the Z score was determined as 2.78.
As to `O=C(NCc1ccco1)C(=O)Nc1nccs1`, the “% Inhibition” value is on record as -8% and the Z score came out at 1.02.
`COc1ccc(N2CCN(C(=O)c3nn(-c4ccc(C)cc4)c(=O)n(C)c3=O)CC2)cc1`: the “% Inhibition” value is given as -16% and the Z score worked out at 1.51.
As to `CCCC[C@H]1CCCN1C(=O)c1cccc(-c2ccco2)c1`, the “% Inhibition” value is listed as -28% and the Z score is given as 3.
Taken in the same sequence, the figures for `O=C(NC1CC2CC2C1)C1CCc2cn[nH]c2C1` (configuration not stated) were -1% and 0.23.
Take `O=C(Nc1nc(C(=O)NCCc2ccncc2)cs1)c1cc(F)cc(F)c1`: the “% Inhibition” value came to 15% and the Z score is listed as -2.85.
On the same counts, the results for `Cn1nncc1C(=O)N[C@@](C)(CO)c1cccc(Br)c1` are -13% and 2.65.
In the case of `O=C(c1cncc(F)c1)N1CC(Cn2cncn2)C1`, the “% Inhibition” value is recorded as -9% and the Z score turned out to be 1.14.
For `OC1CCN(c2nc3nonc3nc2NC2CCCC2)CC1`, the “% Inhibition” value is -4% and the Z score is given as 0.63.
Turning to `COCCOCC(=O)N1CCC[C@H](c2[nH]ncc2-c2ccc(F)cc2)C1`, the “% Inhibition” value is -7% and the Z score turned out to be 0.98.
Turning to `C[C@H]1C(=O)Nc2ccccc2CN1C(=O)c1cncn1C`, the “% Inhibition” value is listed as -15% and the Z score was found to be 2.41.
With `Nc1ccc(S(=O)(=O)N2CCCC2)cc1NC(=O)C1CC=CC1`, the “% Inhibition” value is -4% and the Z score came to 0.62.
For the compound `C[C@H]1CN(C(=O)c2cnc(C(C)(C)C)nc2)c2ccccc2C(=O)N1`, the “% Inhibition” value was -14% and the Z score worked out at 2.5.
On the same counts, the results for `O=C(NC[C@H]1O[C@@H](CO)[C@@H](O)[C@H]1N1CCN(c2ccccn2)CC1)Nc1ccsc1` are -13% and 1.65.
Taken in the same sequence, the figures for `Cc1cc(Cl)cc(C(=O)NCCOCC(N)=O)c1` were -18% and 3.37.
For the compound `O=c1[nH]nc(CNc2nccc(OCc3ccccc3)n2)[nH]1`, the “% Inhibition” value is reported as -6% and the Z score stood at 0.67.
For `CCn1cc(-c2cc(-c3cnn(C)c3)c(C#N)c(N)n2)c2ccccc21`, the “% Inhibition” value is listed as -5% and the Z score stood at 0.62.
Turning to `N#CC1(NC(=O)c2ccncc2Cl)CCCC1`, the “% Inhibition” value was 34% and the Z score is given as -4.52.
Take `Cn1nccc1-n1nc(C(F)(F)F)c2c1CCCC2`: the “% Inhibition” value was -12% and the Z score turned out to be 1.61.
Regarding `Cc1ccc(-c2nc(C)c(C(C)C)c(N3CCN(C(=O)Nc4cccc5ccccc45)CC3)n2)cc1`, the “% Inhibition” value is listed as 13% and the Z score is reported as -1.45.
Consider `CC(C)C[C@@H]1NC2(CCN(S(=O)(=O)c3ccccc3)CC2)N(Cc2cccc(C(F)(F)F)c2)C1=O`, for which the “% Inhibition” value is -12% and the Z score is 2.3.
On the same counts, the results for `Cc1c(Cl)c(C(=O)N2CCNC(C)C2C)nn1C` (configuration not stated) are -16% and 2.29.
`CCC(=O)N1CCc2cc(CNC(=O)c3ccnn3C)ccc21`: the “% Inhibition” value is -8% and the Z score worked out at 1.49.
For `Cc1c(Br)cncc1C(=O)NC(C)(C)C(C)(F)F`, the “% Inhibition” value worked out at 4% and the Z score is reported as -0.64.
`O=C(COCc1ccccc1)N1CC[C@@]2(CCCN(CC3CC3)C2=O)C1`: the “% Inhibition” value is reported as -5% and the Z score turned out to be 0.77.
Consider `COc1ccc(-c2noc(-c3cccnc3NCCc3ccccc3)n2)cc1`, for which the “% Inhibition” value was -3% and the Z score amounted to 0.5.
As to `CO[C@@H](C(=O)N1CC2CC2C1)c1ccccc1` (some centres not stated), the “% Inhibition” value amounted to 2% and the Z score is given as -0.46.
Regarding `O=C(CC1N=C(O)N(Cc2ccccc2Cl)C1=O)N1CCOC(c2ccccc2)C1` (configuration not stated), the “% Inhibition” value is -8% and the Z score came out at 0.88.
With `Fc1ccc(Br)c(CNCCc2nnc3n2CCC3)c1`, the “% Inhibition” value is recorded as -14% and the Z score is listed as 1.54.
In the case of `C=CCC1(S(=O)(=O)N[C@H]2CCc3cc(F)ccc32)CC1`, the “% Inhibition” value is -3% and the Z score is reported as 0.51.
On the same counts, the results for `COc1ccc(C)cc1S(=O)(=O)N1CCn2nc(CNC(C)=O)cc2C1` are -21% and 2.78.
On to `Cc1[nH]c2ccccc2c1[C@@H](O)CN1CCC2(CC1)OCCO2`, for which the “% Inhibition” value is -2% and the Z score was found to be 0.38.
On the same counts, the results for `O=C(Cc1ccccn1)N1CCN(c2ccc3nccnc3n2)CC1` are 2% and -0.22.
On the same counts, the results for `C#C[C@H](CO)NC(=O)Nc1cccc(C)n1` are -12% and 1.77.
On the same counts, the results for `CCCn1nc(-c2ccc(C(N)=O)cc2)nc1CCn1c(C)cccc1=O` are -8% and 1.67.
Take `CCCc1cc([C@@H]2CCCN2Cc2ccc(C)cc2C)no1`: the “% Inhibition” value is -19% and the Z score is given as 2.6.
As for `CN(CC1CCCC1)C(=O)[C@@H]1CC=CCC1`, the “% Inhibition” value is on record as -11% and the Z score was found to be 1.4.
On the same counts, the results for `COCC1(C2CCC2)CN(C(=O)NCc2ccccc2S(N)(=O)=O)C1` are -7% and 1.16.
Taken in the same sequence, the figures for `OCC1(Nc2ccc(Cl)cn2)CCC1` were -8% and 0.85.
Regarding `COC(=O)[C@H]1CN(c2cc(C)nc(C)n2)C[C@@H]1c1ccc(O)cc1`, the “% Inhibition” value is 5% and the Z score is -0.76.
Consider `Nc1ccnc(N2CCC3(CC2)c2nc[nH]c2CCN3C(=O)C2CCC2)n1`, for which the “% Inhibition” value is reported as -5% and the Z score is listed as 0.67.
Turning to `Cc1nn(C)cc1[C@H](C)NS(=O)(=O)CCc1ccc2c(c1)CCO2`, the “% Inhibition” value is recorded as -3% and the Z score is on record as 0.39.
Taken in the same sequence, the figures for `COc1cc2c(cc1C(c1ccccc1)(c1ccccc1)[C@H]1C=CC=CC1)NC(C)(C)C=C2C` were -5% and 0.95.
Take `CCN1CCN(c2nc3ncn(CC(=O)Nc4ccc(C(C)=O)cc4)c(=O)c3s2)CC1`: the “% Inhibition” value is listed as -7% and the Z score worked out at 1.06.
For the compound `O=C(Nc1ncc(C(O)(C(F)(F)F)C(F)(F)F)s1)c1ccccc1`, the “% Inhibition” value is listed as 6% and the Z score is listed as -0.61.
In the case of `Cc1nc(Cc2c[nH]c(=O)[nH]c2=O)n(C(C)(C)C)n1`, the “% Inhibition” value is on record as -9% and the Z score is 1.62.
On the same counts, the results for `CCc1nnc(NC(=O)CC2CC3CCC2C3)s1` (configuration not stated) are 9% and -1.08.
For `Cc1nc(-c2cc(S(=O)(=O)NC3CCCCC3)c(C)n2C)sc1C`, the “% Inhibition” value was -14% and the Z score turned out to be 2.25.
In the case of `O=C(O)[C@H]1CN(c2nccc(N3CCC(O)CC3)n2)C[C@@H]1c1ccncc1`, the “% Inhibition” value is -4% and the Z score is recorded as 0.71.
Consider `CC(NC(C)c1cccs1)C(=O)NC1CCCC1` (configuration not stated), for which the “% Inhibition” value was -5% and the Z score stood at 0.65.
On the same counts, the results for `COC(=O)CC(C)NC(=O)CC(C)NC(=O)C1CCCC1` (configuration not stated) are -9% and 1.14.
For `Cc1cccc(Cn2cc(-c3cnn(Cc4cccc(C)c4)c3)cn2)c1`, the “% Inhibition” value is listed as -4% and the Z score is 0.36.
Regarding `O=C(Nc1nccs1)N1CCC[C@H]1c1ccc2c(c1)OCCCO2`, the “% Inhibition” value is on record as -7% and the Z score is 1.32.
Turning to `O=C(CN(CCN1CCOCC1)C(=O)c1ccc(Br)cc1)N(CCc1ccccc1)Cc1ccco1`, the “% Inhibition” value is on record as -7% and the Z score is 1.04.
For `COCC[C@H](C)NC(=O)Nc1cc(C)ccc1Br`, the “% Inhibition” value is -5% and the Z score stood at 0.83.
Take `CC(C)[C@@H](C(=O)NCc1ccc(C2CCC2)cc1)N1CCCS1(=O)=O`: the “% Inhibition” value was 1% and the Z score is reported as -0.18.
In the case of `NC(=O)c1ccc(-c2ccc(C(=O)N3C[C@H]4C[C@H](O)[C@H](O)C[C@H]4C3)cc2)o1`, the “% Inhibition” value is given as -9% and the Z score stood at 0.86.
Taken in the same sequence, the figures for `C[C@H](NCc1ccc(C2CC2)cc1F)c1nccs1` were -11% and 1.16.
With `CC(C)CCN1C(=O)[C@@]2(CC(=O)Nc3c2c(=O)[nH]n3C(C)C)c2ccccc21`, the “% Inhibition” value is given as -1% and the Z score amounted to 0.12.
As for `CN(CC1(O)CCC1)c1ccc2ccccc2n1`, the “% Inhibition” value is -7% and the Z score worked out at 0.75.
For `Cc1cccn2c(=O)c(C(=O)NCCCN3CCCC3=O)c(O)nc12`, the “% Inhibition” value is listed as -15% and the Z score was 1.86.
On to `CC[C@](C)(NC(=O)c1cnc(C)cn1)C(=O)OC`, for which the “% Inhibition” value was -3% and the Z score turned out to be 0.34.
Taken in the same sequence, the figures for `O=C1CCN(S(=O)(=O)c2cc(F)cc(Cl)c2)C2CCCC12` (configuration not stated) were -1% and 0.21.
For `COCCCNC(=O)[C@H](C)S(=O)(=O)c1ccc(F)c(Cl)c1`, the “% Inhibition” value is 11% and the Z score was -1.5.
As for `CCOC(=O)N1CC[C@H](NC2(c3cc(F)ccc3F)CC2)C1`, the “% Inhibition” value is on record as -9% and the Z score is on record as 1.36.
Take `O=C(Cn1cc2c(n1)CCCCC2)Nc1c(F)c(F)c(F)c(F)c1F`: the “% Inhibition” value was -7% and the Z score came out at 1.26.
For the compound `COc1cc(Cl)cc(C(=O)N2CC[C@](O)(C3CC3)[C@@H](C)C2)c1`, the “% Inhibition” value is reported as -6% and the Z score amounted to 0.89.
Regarding `Cc1ccccc1CNC(=O)N1CC[C@H]2[C@H](CCC(=O)N2CCCO)C1`, the “% Inhibition” value came out at 3% and the Z score is reported as -0.64.
Take `CN(CC(O)COc1ccccc1)C(CNC(=O)OC(C)(C)C)C1CC1` (configuration not stated): the “% Inhibition” value is on record as -11% and the Z score turned out to be 1.38.
With `CCc1cccc(N(C)S(=O)(=O)C2COC2)c1`, the “% Inhibition” value was -10% and the Z score was 0.97.
In the case of `CNC(=O)[C@H]1CN(C(=O)Cc2ccc(OC)c(Cl)c2)CC12CCCC2`, the “% Inhibition” value is listed as -1% and the Z score was found to be 0.16.
For the compound `O=C1COc2cc(C(=O)N3CCCCCO3)ccc2N1`, the “% Inhibition” value is listed as -4% and the Z score amounted to 0.79.
Taken in the same sequence, the figures for `COc1ccc(CN=C2NCCCCN2)cc1Cl` were 6% and -0.83.
`COc1cccc([C@H](CN2CCN(C(=O)Nc3cc(OC)c(OC)c(OC)c3)CC2)OCc2cccc(Cl)c2)c1`: the “% Inhibition” value was -7% and the Z score is 1.03.
`Fc1c(Cl)cccc1Cc1noc(-c2nc3n(n2)CCCN3)n1`: the “% Inhibition” value was -9% and the Z score is reported as 1.65.
Turning to `CCCn1nnnc1CNc1cc(F)c(F)cc1Cl`, the “% Inhibition” value is given as -3% and the Z score stood at 0.48.
Turning to `COc1ccc(N2CCN(C(=O)c3n[nH]c4c3CN(C)CC4)[C@@H](C)C2)cc1`, the “% Inhibition” value is listed as -2% and the Z score is 0.24.
As to `CN1CC2(CCN(C(=O)CCn3cnnn3)CC2)C[C@@H](c2ccccc2)C1=O`, the “% Inhibition” value is 10% and the Z score was -1.34.
On the same counts, the results for `CN(C(=O)NCCCC(C)(C)CO)C1CC1` are -12% and 1.62.
On to `CC[C@H](NC(=O)CCCn1cncn1)c1ncccc1C`, for which the “% Inhibition” value was -1% and the Z score is 0.18.
On the same counts, the results for `O=C1CC[C@@]2(CCCN(S(=O)(=O)C3CC3)C2)CN1Cc1ccccn1` are -10% and 2.04.
Turning to `CCC(NC(=O)C1CCNCC1)C1CN(Cc2ccccc2)CCO1` (configuration not stated), the “% Inhibition” value was found to be 1% and the Z score was -0.26.
Turning to `Cc1cn2nc(N3CCC4(CC3)C[C@@H]4c3nc(-c4cccc(Cl)c4)no3)sc2n1`, the “% Inhibition” value is listed as -4% and the Z score is 0.82.

For the origin of these results see ChEMBL document CHEMBL4888484, “Replenishing the malaria drug discovery pipeline: Screening and hit evaluation of the MMV Hit Generation Library 1 (HGL1) against asexual blood stage Plasmodium falciparum ,using a nano luciferase reporter read-out” (2022).
